# The BET-seq Pho4 binding data (Le et al. 2018)
# This is one part of the list. The energies were worked out here from pooled read counts, against the library average; single values are noisy.
# Target: T1, Pho4 (S. cerevisiae) (UniProt P07270)
# T1 sequence: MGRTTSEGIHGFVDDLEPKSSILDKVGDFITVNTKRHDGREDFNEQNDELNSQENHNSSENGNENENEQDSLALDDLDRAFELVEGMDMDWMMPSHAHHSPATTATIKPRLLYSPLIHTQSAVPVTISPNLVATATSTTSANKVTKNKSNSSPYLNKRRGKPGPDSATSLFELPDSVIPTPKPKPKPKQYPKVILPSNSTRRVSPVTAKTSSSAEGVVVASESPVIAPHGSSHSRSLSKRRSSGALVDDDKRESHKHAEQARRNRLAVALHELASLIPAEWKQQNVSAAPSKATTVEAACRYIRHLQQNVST
# Assay: relative binding free energy (BET-seq); higher = weaker binding
# Conditions: reference: library average
row,Sequence,relative binding free energy
1,TGGCACACGTGATGTT,0.03 kcal/mol
2,ACGATCACGTGGGGGC,0.12 kcal/mol
3,AGGCTCACGTGTAGTT,0.22 kcal/mol
4,AGTTTCACGTGTATGA,0.29 kcal/mol
5,GGTACCACGTGGGAGG,-0.08 kcal/mol
6,ACGGACACGTGTGGAG,0.08 kcal/mol
7,GTGGGCACGTGGACTG,-0.12 kcal/mol
8,CTTTGCACGTGTGTAG,-0.06 kcal/mol
9,TTAAACACGTGTAGAA,0.22 kcal/mol
10,GGTATCACGTGCCTGT,0.15 kcal/mol
11,TGTTTCACGTGAGAAA,0.2 kcal/mol
12,AAAGGCACGTGAAGAG,0.22 kcal/mol
13,AGAGACACGTGGGTCG,-0.11 kcal/mol
14,GGTGACACGTGTGGCC,0.15 kcal/mol
15,AGGAGCACGTGTTTGC,-0.03 kcal/mol
16,AGGTGCACGTGCCAGT,-0.1 kcal/mol
17,ATTAGCACGTGAATGG,0.12 kcal/mol
18,TCATACACGTGGGGGC,0.06 kcal/mol
19,TGATACACGTGATGTA,0.01 kcal/mol
20,TTTAGCACGTGCCAGG,-0.05 kcal/mol
21,AATGGCACGTGTCGGA,-0.03 kcal/mol
22,GTTGTCACGTGACGAT,0.36 kcal/mol
23,TTTTGCACGTGTAGTG,0.07 kcal/mol
24,ATGTTCACGTGAGGTA,0.23 kcal/mol
25,AGTGTCACGTGGTGGA,-0.04 kcal/mol

row,Sequence,relative binding free energy
1,TCTATCACGTGGGTAG,-0.11 kcal/mol
2,ATTGGCACGTGTGGAC,0.05 kcal/mol
3,TATTCCACGTGTGATG,0.15 kcal/mol
4,GTATACACGTGGTCGT,0.07 kcal/mol
5,CTTCTCACGTGTGGTT,0.24 kcal/mol
6,TTTGCCACGTGTATTA,0.06 kcal/mol
7,TTGCACACGTGGGAGT,0.07 kcal/mol
8,GATGTCACGTGGGTGT,-0.07 kcal/mol
9,CAGTGCACGTGGGAGG,-0.16 kcal/mol
10,GTGTTCACGTGGTGCT,0.28 kcal/mol
11,TTATACACGTGAGGAA,0.23 kcal/mol
12,AATGACACGTGTTGGG,0.12 kcal/mol
13,AATGGCACGTGTAGAG,-0.07 kcal/mol
14,GCTCGCACGTGAAGGG,0.2 kcal/mol
15,GTAGGCACGTGGCGTA,-0.2 kcal/mol
16,TGTCTCACGTGTGTGA,0.06 kcal/mol
17,GAGGACACGTGCGGGC,0.05 kcal/mol
18,CAGAACACGTGGGGGG,-0.12 kcal/mol
19,TGTAGCACGTGGCTAA,-0.05 kcal/mol
20,ATATGCACGTGAGAGG,0.23 kcal/mol
21,TGTTTCACGTGAATGC,0.35 kcal/mol
22,GTAGGCACGTGTCAGG,-0.08 kcal/mol
23,GGAGTCACGTGTAGAT,0.31 kcal/mol
24,CCGTTCACGTGGTTTT,0.16 kcal/mol
25,TGTGACACGTGATTTA,0.12 kcal/mol

row,Sequence,relative binding free energy
1,CCGTGCACGTGGTTGG,-0.1 kcal/mol
2,TTGAACACGTGTAAGT,0.12 kcal/mol
3,TGTGCCACGTGAGAGG,0.2 kcal/mol
4,CAGTGCACGTGGTATG,-0.1 kcal/mol
5,TCTGGCACGTGGTAGC,-0.09 kcal/mol
6,TGTGACACGTGCTTGT,-0.07 kcal/mol
7,TGAGACACGTGTATTT,0.05 kcal/mol
8,GTTGGCACGTGGGATA,-0.16 kcal/mol
9,TATGACACGTGTGTAG,-0.13 kcal/mol
10,TGCGACACGTGGGGCG,-0.25 kcal/mol
11,ATTGGCACGTGTGAGT,-0.02 kcal/mol
12,GAGGGCACGTGTGACG,0.08 kcal/mol
13,GGGGACACGTGGCTTT,-0.06 kcal/mol
14,TGTGTCACGTGGGACG,0 kcal/mol
15,AGGGACACGTGGGTAT,-0.01 kcal/mol
16,TCGTTCACGTGTGTGC,0.29 kcal/mol
17,ATGTTCACGTGTATGA,0.3 kcal/mol
18,GAAAGCACGTGTGGAT,0.1 kcal/mol
19,TTAAGCACGTGGGAAT,-0.19 kcal/mol
20,GTCATCACGTGTGTTA,0.15 kcal/mol
21,AGTTTCACGTGAGGCT,0.35 kcal/mol
22,TGTTACACGTGTAATC,0.25 kcal/mol
23,GTTCACACGTGGTTTT,0.17 kcal/mol
24,AGTGACACGTGTTTCG,0.19 kcal/mol
25,ATTGTCACGTGAGTTC,0.24 kcal/mol

row,Sequence,relative binding free energy
1,TTAGGCACGTGCGTTA,-0.15 kcal/mol
2,ATCGTCACGTGTACGG,0.29 kcal/mol
3,GAGCGCACGTGTTGGT,0.01 kcal/mol
4,CTTATCACGTGTTTGG,0.05 kcal/mol
5,TTGGGCACGTGGCGAA,-0.24 kcal/mol
6,ACTAGCACGTGGGAGT,-0.12 kcal/mol
7,TACGACACGTGGTAGT,-0.11 kcal/mol
8,TGTGACACGTGAGAGA,0.24 kcal/mol
9,GGTTTCACGTGGGTTA,0.21 kcal/mol
10,TGGCGCACGTGTGCAT,-0.1 kcal/mol
11,TAAAGCACGTGTTGTT,-0.03 kcal/mol
12,AGGACCACGTGGGTGT,-0.24 kcal/mol
13,TTAATCACGTGGTGGC,-0.03 kcal/mol
14,TGGCTCACGTGGTGGA,0.18 kcal/mol
15,GTCGGCACGTGAAATG,0.22 kcal/mol
16,GGTTGCACGTGGTTGG,0.03 kcal/mol
17,TTAAACACGTGTTTGA,-0.09 kcal/mol
18,GGTTACACGTGGGTAG,0.07 kcal/mol
19,GCATTCACGTGCGGTG,0.21 kcal/mol
20,TTAGGCACGTGGAAAT,0.18 kcal/mol
21,TAGTTCACGTGGGGTA,0.23 kcal/mol
22,AGAGACACGTGGGCTT,0.03 kcal/mol
23,TGTGGCACGTGAGGCA,0.2 kcal/mol
24,GTATCCACGTGTGAGT,0.23 kcal/mol
25,CGGTCCACGTGGTGTG,-0.07 kcal/mol

row,Sequence,relative binding free energy
1,TAGTACACGTGGTTTA,0.15 kcal/mol
2,TATAGCACGTGGGAAG,-0.22 kcal/mol
3,AAATGCACGTGGTTTG,-0.08 kcal/mol
4,TGGACCACGTGGGGTG,-0.22 kcal/mol
5,TGTAACACGTGTAATT,0.16 kcal/mol
6,GGAATCACGTGGCGTT,0.17 kcal/mol
7,ATCTTCACGTGTTTTG,0.33 kcal/mol
8,GGTTCCACGTGTTGGT,0.14 kcal/mol
9,ATGGTCACGTGAAATG,0.26 kcal/mol
10,GGGTTCACGTGTTGTT,0.33 kcal/mol
11,TGATACACGTGTCGAT,0.14 kcal/mol
12,TGGGACACGTGGTAAA,-0.04 kcal/mol
13,CGTGGCACGTGCGGAG,-0.17 kcal/mol
14,CCTGGCACGTGGTGTG,-0.14 kcal/mol
15,CTGCGCACGTGGTATG,-0.2 kcal/mol
16,GGCTCCACGTGAGTGG,0.22 kcal/mol
17,TCTTGCACGTGTTGAT,0.03 kcal/mol
18,TGAATCACGTGGGCGG,0.11 kcal/mol
19,CGGGACACGTGTGTGA,-0.01 kcal/mol
20,AGGGCCACGTGTGTAG,-0.14 kcal/mol
21,TAGAGCACGTGGTAGA,-0.38 kcal/mol
22,GGGCACACGTGAGGTA,0.16 kcal/mol
23,TAATGCACGTGAGTGA,0 kcal/mol
24,TATTACACGTGAGTCT,0.4 kcal/mol
25,CTCATCACGTGTGGGT,0.15 kcal/mol

row,Sequence,relative binding free energy
1,AGATACACGTGCTGGT,-0.09 kcal/mol
2,GCGTGCACGTGCGGGA,0.02 kcal/mol
3,GTTAACACGTGGCGTA,0.02 kcal/mol
4,TGATACACGTGTGTAG,0.1 kcal/mol
5,AGTAGCACGTGCATTG,-0.08 kcal/mol
6,GATAACACGTGTTTTT,0.18 kcal/mol
7,ATTTTCACGTGGGGCC,0.18 kcal/mol
8,CATATCACGTGGGGTA,-0.15 kcal/mol
9,GGAGGCACGTGCGCGG,-0.27 kcal/mol
10,GGTGTCACGTGTTTCT,0.18 kcal/mol
11,TTTGGCACGTGGGCCT,-0.24 kcal/mol
12,TGAGGCACGTGAGAAT,0.1 kcal/mol
13,GGTCGCACGTGCATTG,0.14 kcal/mol
14,GTAGGCACGTGCTGGT,-0.11 kcal/mol
15,GGGAACACGTGGGACG,-0.02 kcal/mol
16,TTATGCACGTGATATA,-0.07 kcal/mol
17,TGGGGCACGTGCTTGA,-0.2 kcal/mol
18,TTCGGCACGTGCGATG,-0.01 kcal/mol
19,CCGTACACGTGGGGGA,0 kcal/mol
20,TTGGCCACGTGGGAAT,-0.11 kcal/mol
21,AGTAGCACGTGAATTT,0.15 kcal/mol
